These results are taken from PubChem BioAssay AID1159614 (National Center for Advancing Translational Sciences (NCATS), 2016).

Screen size: about 45,000 compounds; about 65 (0.1%) were called active. Calls come from the whole dose curve; as a rule, active = well fitted activation curve with a large enough effect; inconclusive = small, poorly fitted or top-dose-only effect; inactive = no such curve, though single readings can be large or run the other way. Some of the results follow.

This experiment has as its target Galactocerebrosidase (Homo sapiens) (UniProt P54803). The experiment in a line: A Novel Cell-Based Assay to Identify Small Molecules for B -Galactocerebrosidase. Note: 0% is about no effect; nearly all actives have a fitted effect of over 65% in size. To be noted: 145M-Twi-hGALC-G270D cells (Twitcher mouse brain line with human GALC G270D), HMU-beta-Gal fluorescence, 48 h; series mostly up to 57.5 µM; activation: at the top concentration. In outline: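 Brain-derived Twitcher mouse 145M-Twi cells stably expressing human GALC-G270D or wild-type GALC, treated live, then residual GALC activity read by fluorescence of HMU-b-Gal substrate (0.1 mM final) in citrate-phosphate buffer pH 5.2 with sodium taurocholate. Signal increase indicates enhancement.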
Sequence of UniProt P54803 (P54803 whole entry, looked up): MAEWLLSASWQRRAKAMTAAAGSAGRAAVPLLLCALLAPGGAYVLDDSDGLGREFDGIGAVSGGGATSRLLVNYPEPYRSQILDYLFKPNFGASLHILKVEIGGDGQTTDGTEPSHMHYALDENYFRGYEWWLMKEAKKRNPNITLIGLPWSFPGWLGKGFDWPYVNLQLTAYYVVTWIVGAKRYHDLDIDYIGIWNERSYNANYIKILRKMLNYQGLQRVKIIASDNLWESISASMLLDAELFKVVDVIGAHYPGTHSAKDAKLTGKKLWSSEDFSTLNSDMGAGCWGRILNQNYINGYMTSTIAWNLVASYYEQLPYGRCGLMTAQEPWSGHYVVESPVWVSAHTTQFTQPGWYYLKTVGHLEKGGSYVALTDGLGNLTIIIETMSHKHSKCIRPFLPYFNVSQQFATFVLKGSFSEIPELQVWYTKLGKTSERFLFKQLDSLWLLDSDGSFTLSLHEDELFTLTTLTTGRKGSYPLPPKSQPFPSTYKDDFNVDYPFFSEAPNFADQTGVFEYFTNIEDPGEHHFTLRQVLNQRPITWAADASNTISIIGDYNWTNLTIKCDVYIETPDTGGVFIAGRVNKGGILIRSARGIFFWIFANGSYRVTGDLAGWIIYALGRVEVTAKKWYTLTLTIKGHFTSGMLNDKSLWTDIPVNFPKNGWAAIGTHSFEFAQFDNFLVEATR
Turning to `COc1ccc(-c2nc(CN3CCC(C(=O)NCc4ccc(C)cc4)CC3)c(C)o2)cc1OC`, the “activation” value is inactive: -4.87%.
Regarding `CC(=O)N1CCCc2cc(S(=O)(=O)N3CCC(C(=O)Nc4c(C)cccc4C)CC3)ccc21`, the “activation” value is inactive: -14.8%.
The result for `COc1ccc(CCNC(=O)C(=O)NCC(c2cccs2)S(=O)(=O)c2cccs2)cc1` (centres undefined) reads inactive: -8.18%; that for `COc1ccccc1CNc1ncnc2onc(-c3ccc(F)cc3)c12`, inactive: -6.27%; that for `COc1ccc(C(=O)n2nc(-c3cccnc3)nc2NCc2ccccc2)cc1OC`, inactive: -4.87%.
As for `CCOc1ccccc1Nc1nc2ccccc2nc1NS(=O)(=O)c1ccc(Cl)cc1`, the “activation” value was inactive: -25%.
As to `Cc1cc(F)ccc1NC(=O)Cn1nc(N2CCN(c3ccccc3)CC2)ccc1=O`, the “activation” value was inactive: -4.78%.
Turning to `Cc1ccc(-c2noc(-c3cccnc3NCc3ccco3)n2)cc1`, the “activation” value was inactive: -2.77%.
For the compound `COc1ccc(CNC(=O)CN2C(=O)COc3ccc(S(=O)(=O)N4CCCCC4)cc32)cc1`, the “activation” value is inactive: -9.58%.
Take `COc1ccc2c(CNC3CCCCCC3)c(C(=O)O)n(Cc3ccc(C)cc3)c2c1`: the “activation” value is inactive: 3.12%.
The result for `CCc1nnc(SCc2cccc(Cl)c2)c2cc3sccc3n12` reads inactive: -30.8%.
As to `COc1ccc(-c2cc(OC(=O)c3ccccc3Cl)c3c(C)oc(C)c3c(=O)c2)cc1OC`, the “activation” value was inactive: -19.9%.
With `COc1cc(OC)c(NS(=O)(=O)c2c(C)nc3sc(C)cn3c2=O)cc1Cl`, the “activation” value is inactive: -4.4%.
Consider `CCOc1cccc(C(=O)Nc2ccc3oc(-c4ccncc4)nc3c2)c1`, for which the “activation” value was inactive: -9.21%.
The result for `Cc1cc(C)c(NC(=O)CSc2nc3nccnc3c(=O)n2CCc2c[nH]c3ccccc23)c(C)c1` reads inactive: -6.62%.
`COc1ccc(NC(=O)Cn2c(=O)n(CCCCCC(=O)NCc3ccc4c(c3)OCO4)c(=O)c3sccc32)cc1Cl`: the “activation” value was inactive: -22.9%.
For `O=C(Nc1cccc(C(=O)OCc2cc(=O)n3c4c(sc3n2)CCCC4)c1)c1ccc(Cl)cc1`, the “activation” value is inactive: -8.09%.
In the case of `CCCSc1oc(-c2cccs2)nc1S(=O)(=O)c1ccc(C)cc1`, the “activation” value was inactive: -9.33%.
On to `Cc1ccc(Cn2c(C)c3cnn(CC(=O)O)c(=O)c3c2C)cc1`, for which the “activation” value is inactive: -4.81%.
In the case of `O=C(Cn1cc(SCc2ccc(F)cc2)c2ccccc21)N1CCCCC1`, the “activation” value is inactive: -8.48%.
Turning to `COc1ccc(C)cc1NC(=O)c1sc2nc(-c3ccc(F)cc3)cn2c1C`, the “activation” value was inactive: -6.05%.
With `CCN(CC)C(=O)c1sc2c(c1C)c(=O)n(Cc1ccccc1)c(=O)n2Cc1cc(C)ccc1C`, the “activation” value was inactive: -10.1%.
As to `O=C(NCc1ccccc1)c1cnc2sc(N3CCCC3)nn2c1=O`, the “activation” value is inactive: -9.68%.
In the case of `CCOc1cc(S(=O)(=O)NCCc2c(C)[nH]c3ccc(C)cc23)ccc1F`, the “activation” value is inactive: 0.395%.
Take `COc1ccc2c(c1)c(CC(=O)Nc1cc(C)cc(C)c1)c(C)n2C(=O)c1ccc(Cl)cc1`: the “activation” value was inactive: -10.8%.
`O=C(Nc1ccccc1C(F)(F)F)c1cc2nc(-c3ccccc3)cc(-c3ccccc3)n2n1`: the “activation” value is inactive: -8.59%.
On to `CCc1ccc2c(c1)NC(c1ccc(F)cc1)=NC(c1ccncc1)=N2`, for which the “activation” value is inactive: -0.85%.
Consider `COc1ccccc1NC(=O)c1sc(-c2ccc(Cl)cc2)cc1N`, for which the “activation” value is inactive: -31.9%.
For the compound `O=C(CCCn1ncn2c(cc3occc32)c1=O)NCc1ccccc1F`, the “activation” value was inactive: -5.26%.
The result for `Cc1cc(C)c2oc(C(=O)Nc3ccc(S(=O)(=O)Nc4ncccn4)cc3)cc(=O)c2c1` reads inactive: -16.1%; that for `Cc1cc2c(cc1S(=O)(=O)C(C)CC(=O)NC1CCC(C)CC1)OCC(=O)N2` (centres undefined), inactive: -1.98%.
On to `CCc1ccc(NC(=O)c2sc(-n3nc(C)c(Cc4ccc5c(c4)OCO5)c3C)nc2C)cc1`, for which the “activation” value is inactive: 0.0603%.
In the case of `Cc1ccc2oc(C(=O)Nc3ccc(S(=O)(=O)N4CCCCCC4)cc3)cc(=O)c2c1`, the “activation” value is inactive: -12.5%.
As for `CC(C)Cn1cnc2c(N)nc3ccccc3c21`, the “activation” value was inactive: -16.3% [at 23.8 µM].
In the case of `COc1ccccc1NC(=O)Cn1nc2c3cc(F)ccc3n(Cc3cccc(C)c3)cc-2c1=O`, the “activation” value is inactive: -13%.
On to `CCOc1ccccc1NC(=O)Cn1c(=O)n(-c2ccc(C)c(C)c2)c(=O)c2oc3ccccc3c21`, for which the “activation” value was inactive: -2.69%.
In the case of `O=C(Oc1ccccc1F)c1nc(SCc2ccccc2F)ncc1Cl`, the “activation” value was inactive: -11.9%.
Consider `CC(=O)N1CCCc2cc(S(=O)(=O)NCc3ccccc3Cl)ccc21`, for which the “activation” value is inactive: -8.5%.
Then `CCN1CCC(N(Cc2ccc3c(c2)OCO3)C(=O)Nc2cccc(C)c2C)CC1`, with inactive: -8.38%; and `Cc1ccc2nc(-c3cccc(NC(=O)CSc4ccc(Cl)cc4)c3)oc2c1`, with inactive: -16.2%; and `COc1ccc(Nc2ncc3c(n2)CCN(Cc2cccc(F)c2F)C3)c(OC)c1`, with inactive: -17.3%.
On to `Cc1ccc(S(=O)(=O)c2nnn3c2nc(N2CCCC(C)C2)c2cc(Cl)ccc23)cc1C` (centres undefined), for which the “activation” value is inactive: -5.99%.
For `CCN(C(=O)Cn1cc(S(=O)(=O)N2CCN(c3ccccc3F)CC2)c2ccccc2c1=O)c1ccc(C)c(C)c1`, the “activation” value was inactive: -2.11%.
In the case of `Cc1ccc(NC(=O)Cn2c(=O)n(-c3ccccc3)c(=O)c3ccc(C(=O)NCc4ccc5c(c4)OCO5)cc32)cc1`, the “activation” value was inactive: -15.3%.
As for `Oc1c(C(c2ccccc2Cl)N2CCC(O)CC2)sc2nc(-c3ccco3)nn12` (centres undefined), the “activation” value is inactive: -4.04%.
Then `CCN(Cc1ccccc1)C(=O)C1CCC(CNS(=O)(=O)c2ccc3c(c2)CCCC(=O)N3)CC1` (centres undefined), with inactive: -8.33%; and `Cc1ccc(C)c(NC(=O)c2cc(S(=O)(=O)N3CCN(c4cccc(Cl)c4)CC3)ccc2F)c1`, with inactive: -14.1%.
As to `CCc1ccc(Nc2nc3c(S(=O)(=O)c4ccc(C)cc4)nnn3c3ccsc23)cc1`, the “activation” value was inactive: -8.65%.
Take `Cc1ccc(NC(=O)CSc2nc3ccccc3nc2Cc2ccccc2)c(Cl)c1`: the “activation” value is inactive: -13%.
The result for `Cc1ccc(-n2ncc(C(=O)NCc3ccccn3)c2C2CCN(C(=O)OC(C)(C)C)CC2)cc1C` reads inactive: 7.15%; that for `COc1cccc(CNC(=O)C2CCN(Cc3cc4ccccc4n3Cc3ccccc3)CC2)c1OC`, inactive: -13.5%; that for `Cc1ccc(Cl)cc1NC(=O)c1nnn(Cc2ccccc2)c1N`, inactive: -8.41%.
On to `CCOc1ccc(S(=O)(=O)NCc2ccc3c(c2)CCN3C(=O)c2ccc(C)cc2)cc1`, for which the “activation” value is inactive: -9.8%.
On to `CCn1ccc2cc(S(=O)(=O)N3CCC(C(=O)NCC(C)c4ccccc4)CC3)ccc21` (centres undefined), for which the “activation” value is inactive: -9.34%.
`Cc1ccc(NCc2cc3cc4c(cc3n(CC(=O)Nc3ccc(F)cc3F)c2=O)OCCO4)cc1`: the “activation” value is inactive: 1.57%.
With `Cc1nnc2c3ccccc3nc(Nc3ccccc3C(=O)O)n12`, the “activation” value is inactive: -14.3%.
For `COc1ccc(S(=O)(=O)Nc2cc(-c3cn4ccc(C)cc4n3)ccc2C)cc1OC`, the “activation” value was inactive: -19%.
Consider `O=C(COc1ccc(Cl)cc1)Nc1ccc2nc(SCC(=O)N3CCOCC3)sc2c1`, for which the “activation” value was inactive: -13.4%.
In the case of `O=C(Nc1ccc(C(F)(F)F)cc1)c1cc(S(=O)(=O)N2CCCc3ccccc32)ccc1F`, the “activation” value is inactive: -8.68%.
With `Cc1ccc(CN2c3ccccc3-c3nc(SCC(=O)NCCc4ccccc4)ncc3S2(=O)=O)cc1`, the “activation” value is inactive: 0.654%.
As to `CCOC(=O)c1cccc(NC(=O)CSc2cc(=O)n(C)c3ccccc23)c1`, the “activation” value is inactive: -33.1%.
`CCN(CC)CCNC(=O)c1ccc(-c2nc(CN3CCc4ccccc43)c(C)o2)cc1`: the “activation” value was inactive: -15.4%.
Then `Cc1nnsc1C(=O)Oc1ccc(C#N)cc1`, with inactive: -10.9%; and `O=C(/C=C/c1ccccc1)Nc1nc2n(n1)C(c1ccc(Cl)cc1)C=C(c1ccccc1)N2` (centres undefined), with inactive: -11.1%; and `Clc1ccc(CN2CCc3nc(N4CCN(c5ccccn5)CC4)ncc3C2)cc1`, with inactive: -10.1%.
With `O=C(CN1C(=O)C2(SCC(=O)N2c2cccc(F)c2)c2ccccc21)NCc1ccccc1Cl` (centres undefined), the “activation” value was inactive: -11%.
`CCOC(=O)c1ccc(Oc2nc(C)nc3c2oc2ccccc23)cc1`: the “activation” value was inactive: -11.1%.
Regarding `CC(C)CC(=O)NCC(c1ccc2c(c1)OCO2)N1CCN(c2ccc(F)cc2)CC1` (centres undefined), the “activation” value was inactive: 5.36%.
In the case of `CC(C)(C)c1ccc(S(=O)(=O)c2cnc(SCC(=O)Nc3ccc4c(c3)OCCO4)[nH]c2=O)cc1`, the “activation” value is inactive: -21.1%.
`CCc1nc2ccccc2n1CCCCOc1cccc(C)c1`: the “activation” value is inactive: -19.6%.
The result for `CCOC(=O)c1cc(-c2ccccc2)n(CCCC(=O)Nc2cccc(C)c2)c1C` reads inactive: -0.497%.
`COc1cc(C2c3c(oc4ccc(F)cc4c3=O)C(=O)N2c2nc(C)c(C)s2)cc(OC)c1OC` (centres undefined): the “activation” value is inactive: -4.91%.
Regarding `O=C(CCS(=O)(=O)c1cc(Br)cc2c1N(C(=O)C1CC1)CC2)N1CCN(c2ccc(F)cc2)CC1`, the “activation” value is inactive: -16.3%.
As to `Cc1ccc(N(C)C(=O)Cn2cnc3onc(-c4ccc(F)cc4)c3c2=O)cc1C`, the “activation” value is inactive: -21.9%.
For the compound `COc1ccc(C)cc1NC(=O)COCc1cc(-c2cccs2)on1`, the “activation” value was inactive: -18.8%.
Take `CCOc1ccc(NC(=O)CSc2nc3c(c(=O)[nH]2)CCCC3)cc1`: the “activation” value is inactive: -19.8%.
In the case of `Cc1ccc2ncc(C(=O)NCCc3ccc(S(N)(=O)=O)cc3)c(=O)n2c1`, the “activation” value was inactive: -28.6%.
Take `COc1ccc(CCNC(=O)CCCn2c(=O)c3ccccc3n(Cc3ccc(C)cc3)c2=O)cc1OC`: the “activation” value is inactive: -5.19%.
Consider `COc1cc(NC(=O)CSc2nc3ccccc3nc2Cc2ccccc2OC)cc(OC)c1`, for which the “activation” value is inactive: -2.56%.
`COc1cccc(CNC(=O)CNS(=O)(=O)c2ccc3nc(C)sc3c2)c1`: the “activation” value is inactive: -4.77%.
As to `O=C(c1ccc(Cl)cc1)N(Cc1ccco1)Cc1ccco1`, the “activation” value is inactive: -9.01%.
On to `CCOc1ccccc1Nc1sc(C(=O)c2ccccc2)c(N)c1C(=O)NCCc1ccccc1`, for which the “activation” value was inactive: -12.4%.
On to `COc1ccccc1OCCn1c(COc2cc(C)ccc2C)nc2ccccc21`, for which the “activation” value was inactive: -14.8%.
In the case of `Cc1nn2c(C)c(C(=O)N3CCN(c4ccccc4)CC3)cnc2c1-c1ccccc1`, the “activation” value was inactive: -3.55%.
`Cc1ccc(CCNC(=O)c2cc3c(=O)oc4ccccc4c3s2)cc1`: the “activation” value was inactive: -27.8%.
Then `CCN(CC)S(=O)(=O)c1nnc(NC(=O)c2ccccc2Cl)s1`, with inactive: -18.8%; and `CC(C)CNc1nc(NC(C)(C)C)nc(Oc2ccc(=O)n(-c3ccccc3)n2)n1`, with inactive: -10.6%.
Turning to `CCC(=O)Nc1ccc(C)cc1-c1nc2ccccc2n(CC(=O)Nc2ccccc2Cl)c1=O`, the “activation” value was inactive: 4.99%.
Then `COc1cc(OC)cc(C(=O)Nc2ccc3oc(-c4ccccc4C)nc3c2)c1`, with inactive: -11.2%; and `COc1ccc(NC(=O)Cn2c(=O)n(CC3CCCO3)c(=O)c3ccccc32)c(OC)c1` (centres undefined), with inactive: -3.16%.
For `CCN1CCN(CCCNC(=O)c2cc3c(=O)n(CC)c4ccccc4c3s2)CC1`, the “activation” value is inactive: -0.332%.
As to `Cc1c(CNCc2ccc(OC(C)C)cc2)c(C(=O)O)c(C)n1Cc1ccc(Cl)cc1`, the “activation” value was inactive: -7.7%.
Then `COc1ccc(N(C(=O)c2ccccc2F)S(=O)(=O)c2ccc3c(c2)n(C)c(=O)n3C)cc1`, with inactive: 2.86%; and `CC(=O)N1CCOc2cc(S(=O)(=O)NCc3ccc(C)cc3)c(C)cc21`, with inactive: -4.33%.
